# According to PubChem BioAssay AID504832 (National Center for Advancing Translational Sciences (NCATS), 2011):
# Where “and” joins values, the source holds several entries; their conditions need not be identical. Equal values may be shown once. Hit rate of the full screen: of about 310,000 compounds, about 18,000 (5.8%) were called active. Inconclusive results, whose numbers are uncertain, are shown with a selection of clear calls. Calls come from the whole dose curve; as a rule, active = well fitted inhibition curve with a large enough effect; inconclusive = small, poorly fitted or top-dose-only effect, or another doubt; inactive = no such curve, though single readings can be large or run the other way. Potencies of inconclusive entries are doubtful fits and often do not repeat.
# Assay: Primary qHTS for delayed death inhibitors of the malarial parasite plastid, 48 hour incubation
# Details: P. falciparum luciferase growth in erythrocytes; series mostly up to 28.7 µM; activity change, negative = inhibition: at the top concentration
# How it was run: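 A one-generation exposure of luciferase-tagged malaria parasites in RPMI 1640/Albumax erythrocyte culture, 37 C and 5% CO2. Inhibition is inferred from decreased luminescence after adding detection reagent.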
# % is set by controls: 0 for no effect and ±100 for the full control effect; potency is the fitted concentration of half-maximal effect; tags give direction and shape of the fitted curve.
Compound,"activity change, negative = inhibition",Potency
Cc1ccc(NC(=O)c2snc3ccc(Cl)cc23)cc1C,inactive: 202%,
CC1CC=C2C(C#N)=C(N)C(C#N)(C#N)C(c3cccs3)C2C1 (stereo unspecified),,"inconclusive: 11.7 µM [inhibitor, single point]"
Cc1cc(NC(=O)c2cccs2)ncc1NC(=O)c1cccc(F)c1,inactive: 62.2%,
COCCn1ccc2c(OCC(=O)NCc3ccc(C)cc3)cccc2c1=O,,"inconclusive: 11.7 µM [inhibitor, single point]"
Cc1cccc(N2CC(C)Cn3c2nc2c3c(=O)[nH]c(=O)n2C)c1 (stereo unspecified),inactive: -3.26%,
CC(C)(C)C(=O)Nc1cc2c3c(c1)CC(=O)N3CCC2,,"inconclusive: 0.0586 µM [inhibitor, full curve, poor fit]"
CCCOc1c(OC)cccc1C1CC(=O)Nc2cc(OC)c(OC)c(OC)c21 (stereo unspecified),,"inconclusive: 0.185 µM [inhibitor, full curve, poor fit]"
C=CCN1C2CCCC1CC(NC(=O)Nc1cccc(C(C)=O)c1)C2 (stereo unspecified),,"inconclusive: 16.5 µM [inhibitor, single point]"
O=S(=O)(c1ccccc1Oc1ccc(Cl)cc1Cl)N1CCCCC1,,"inconclusive: 7.38 µM [inhibitor, partial curve]"
Cc1ccc(OCC(=O)NNC(=O)Cc2ccc(S(=O)(=O)N3CCOCC3)s2)cc1,,"inconclusive: 10.4 µM [inhibitor, single point]"
CCOC(=O)C1CCN(C(=O)c2ccc(OCC(=O)Nc3cccc(C(F)(F)F)c3)c(OC)c2)CC1,,"inconclusive: 11.7 µM [inhibitor, single point]"
O=C(c1ccco1)N1CCN(C(=S)Nc2ccc(F)c(Cl)c2)CC1,inactive: 1.98%,
Cc1cc(=O)oc2cc(O)c(N=Nc3ccccc3)cc12,,"inconclusive: 16.5 µM [inhibitor, single point]"
Nc1ccccc1Nc1nc2ccccc2[nH]1,inactive: 66%,
Cc1cccc(NC(=O)CCS(=O)(=O)c2cccc3nsnc23)c1C,,"inconclusive: 0.0928 µM [inhibitor, full curve, poor fit]"
CCN(CC)CCNC(=S)NC(=O)c1cn(-c2ccccc2)nc1-c1ccc(OC)cc1,,"inconclusive: 5.22 µM [inhibitor, partial curve, poor fit]"
Cn1cnc([N+](=O)[O-])c1Sc1ccc([N+](=O)[O-])cc1,,"inconclusive: 18.5 µM [inhibitor, single point]"
CCN1CCN(C(=S)c2ccc(Br)cc2)CC1,inactive: 17.8%,
COc1cccc(OCc2nnc(SCC(=O)OC3CCCCC3)n2C)c1,,"inconclusive: 2.62 µM [inhibitor, partial curve, poor fit]"
CCCC(=O)N(CCc1ccccc1)Cc1nc2ccccc2c(=O)[nH]1,,"inconclusive: 4.65 µM [inhibitor, partial curve]"
COc1cc(C(c2c(O)cc(C)[nH]c2=O)c2c(O)cc(C)[nH]c2=O)ccc1O,inactive: 20%,
CCOC(=O)c1c(C)n(C)c2ccc(OC(=O)c3ccc([N+](=O)[O-])cc3)cc12,inactive: 19.1%,

Compound,"activity change, negative = inhibition",Potency
O=C(c1ccc(Br)o1)N1CCN(c2ccc3nnc(-c4ccccc4)n3n2)CC1,,"inconclusive: 11.7 µM [inhibitor, partial curve]"
O=c1nc(N2CCCC2)nc(N2CCCC2)[nH]1,,"inconclusive: 18.5 µM [inhibitor, single point]"
CCOC(=O)CC1C(=O)NCCN1c1nc2c(C)cccn2c(=O)c1/C=C1\SC(=S)N(CC(C)C)C1=O (stereo unspecified),,"inconclusive: 11.7 µM [inhibitor, single point]"
CCCCn1c(O)c(C(CC)=NCCN2CCOCC2)c(=O)[nH]c1=O,inactive: 17.3%,
O=C(N/N=C/c1ccc2c(c1)OCO2)c1cc(-c2ccncc2)nc2ccccc12,,"inconclusive: 10.4 µM [inhibitor, single point]"
CN(C)c1ccc(O)c2c1CC1CC3[C@@H](N(C)C)C(=O)C(C(N)=O)=C(O)[C@]3(O)C(=O)C1=C2O (stereo partly specified),,active: 4.65 µM
CCOC(=O)COc1c(OC)cc(Cl)cc1C1Nc2ccccc2C(=O)N1c1cccc(C)c1 (stereo unspecified),,"inconclusive: 18.5 µM [inhibitor, single point]"
CCn1c(SCc2ccc(C)cc2)nnc1C1CCN(S(=O)(=O)c2ccc(OC)cc2)CC1,,active: 11.7 µM
COc1ccccc1C1CCN(Cc2cccc(C(=O)N3CCC(O)CC3)c2)CC1,inactive: -13.6%,
Cc1ccccc1Nc1nnc(SCC(=O)N(C)C2CCS(=O)(=O)C2)s1 (stereo unspecified),,"inconclusive: 10.4 µM [inhibitor, partial curve]"
O=C(Nc1ccc(S(=O)(=O)Nc2ccccc2)cc1)C1COc2ccccc2O1 (stereo unspecified),,"inconclusive: 18.5 µM [inhibitor, single point]"
CC(=O)NC(c1cc(F)c2cccnc2c1O)C1CC1 (stereo unspecified),,"inconclusive: 5.86 µM [inhibitor, partial curve, poor fit] and inconclusive: 18.5 µM [inhibitor, single point]"
CC(C)N1CCN(C(=O)c2cccc(Cl)c2)CC1,inactive: 8.85%,
CC(C)N(C(=O)COC(=O)c1cccc(S(=O)(=O)N2CC3(C)CC2CC(C)(C)C3)c1)C(C)C (stereo unspecified),,"inconclusive: 14.7 µM [inhibitor, partial curve, poor fit]"
COc1cc2c(c(OC)c1OC)-c1ccc(O)c(=O)cc1[C@@H](N)CC2,,"inconclusive: 18.5 µM [inhibitor, single point]"
COc1ccc2c(c1)OC[C@H]1[C@H]2N2C(=O)c3cc(Br)ccc3NC(=O)[C@@]2(C)[C@H]1c1ccccc1,,active: 1.65 µM
COc1ccc(NC(=O)COc2ccccc2Cc2ccccc2)cn1,,"inconclusive: 18.5 µM [inhibitor, single point]"
C=CCn1c(=S)sc2c(=O)[nH]cnc21,inactive: 69.5%,
CC(C)(C)Nc1c2ccccc2nc2ccccc12,,"inconclusive: 5.22 µM [inhibitor, partial curve, poor fit]"
COC(=O)c1sccc1NC(=S)N1C(C)CCCC1C (stereo unspecified),,"inconclusive: 18.5 µM [inhibitor, single point]"
O=C(Nc1cccn(Cc2ccc(F)cc2)c1=O)NC1CCCCC1,,"inconclusive: 18.5 µM [inhibitor, single point]"
Cc1ccc(-n2nc3c(c2NC(=O)c2c(-c4ccccc4Cl)noc2C)CS(=O)(=O)C3)c(C)c1,,"inconclusive: 13.1 µM [inhibitor, single point]"

Compound,"activity change, negative = inhibition",Potency
CCOCc1c(C(=O)OCC(=O)Nc2ccccc2C(N)=O)oc2ccccc12,,"inconclusive: 13.1 µM [inhibitor, single point]"
CCc1cc(Br)ccc1NC(=S)NCCc1ccccc1,,"inconclusive: 14.7 µM [inhibitor, single point]"
CCc1cccc(CC)c1NC(=O)C(NS(=O)(=O)c1cccs1)c1ccccc1 (stereo unspecified),,"inconclusive: 5.86 µM [inhibitor, partial curve, poor fit]"
CCC1S/C(=N/N=C/c2ccco2)N(Cc2ccccc2)C1=O (stereo unspecified),,"inconclusive: 18.5 µM [inhibitor, single point]"
COc1cc(OC)cc(C(=O)NCCCN2CCN(CCCNC(=O)c3cc(OC)cc(OC)c3)CC2)c1,,"inconclusive: 0.329 µM [inhibitor, full curve, poor fit]"
NS(=O)(=O)c1cccc(NC(=O)COc2ccc([N+](=O)[O-])cc2)c1,,active: 9.28 µM
Nc1nc2c(s1)CCCCCCCCCC2,inactive: -17.8%,
N/N=C(\c1ccccc1)c1cc(Br)ccc1N,,"inconclusive: 18.5 µM [inhibitor, single point]"
C#CCNC(=O)C1=C[C@@H](c2ccc(Br)cc2)C[C@@H](OCCCCO)O1,,"inconclusive: 11.7 µM [inhibitor, partial curve, poor fit]"
CCCCNC(=O)CSc1nnc(-c2c[nH]c3ccccc23)n1CC1CCCO1 (stereo unspecified),,"inconclusive: 4.15 µM [inhibitor, partial curve, poor fit]"
Cc1ccc(/C=C2\Oc3c(ccc(O)c3CN3CCN(C)CC3)C2=O)cc1,,"inconclusive: 20.8 µM [inhibitor, partial curve, poor fit]"
CCC12CN(C(=O)c3ccc(C)cc3)CC(CC)(CN(C(=O)c3ccc(C)cc3)C1)C2=O,,"inconclusive: 8.28 µM [inhibitor, partial curve, poor fit]"
Cc1ccc(NC(=S)/N=C(\N)Nc2nc(C)c3cc(C)ccc3n2)c(C)c1,,"inconclusive: 5.86 µM [inhibitor, partial curve]"
Cc1ccc(-c2nn(CC(=O)Nc3ccc4c(c3)nc3n4CCOC3)c(=O)c3ccccc23)cc1,,"inconclusive: 2.94 µM [inhibitor, full curve, poor fit]"
c1cc2c(cc1CCNC1CCCCCC1)OCO2,,"inconclusive: 13.1 µM [inhibitor, single point]"
Cc1nn(-c2ccccc2)c(OC(=O)c2cccs2)c1S(=O)(=O)c1ccc([N+](=O)[O-])cc1,inactive: 12%,
CC1=CC(=O)N(c2cccc(C(F)(F)F)c2)C1c1ccc(Cl)cc1 (stereo unspecified),,active: 8.28 µM
O=C(NCc1cccnc1)C(=O)NCC1OCCN1S(=O)(=O)c1cc(F)ccc1F (stereo unspecified),inactive: 43.2%,
CCC(CC)Nc1ccc(C(CC(N)=O)NC(=O)c2ccccc2)cc1[N+](=O)[O-] (stereo unspecified),inactive: -6.87%,
Cc1ccc(-c2csc3nnc(SCc4csc(C)n4)n23)cc1,,"inconclusive: 13.1 µM [inhibitor, single point]"
Cc1cc(NC(=O)C2CC(=O)N(c3ccc(F)cc3)C2)no1 (stereo unspecified),inactive: 4.85%,
Cc1cc(C)cc(NC(=S)/N=C(\N)Nc2nc(C)c3ccccc3n2)c1,,"inconclusive: 13.1 µM [inhibitor, single point]"
